Here are results for 71 molecules from the supplement of paper PMC4723716.

± gives the uncertainty stated by the source. The full ranking holds about 9,900 compounds; the median of “viability index relative to DMSO control” is about 1, and the lowest 2% start at about 0.85. The list shows a part of the results.

The test system of this test is Plasmodium falciparum NF54 stage V gametocytes. Nature of the test: viability index relative to DMSO control (fraction); higher = less gametocyte killing. The following applies: 2.5 µM, library set: Broad Institute DOS, incubation time: 72 h. The gist of the method:
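P. falciparum NF54 stage V gametocytes (serum-free medium, 0.75% gametocytemia, 1.25% hematocrit) were exposed to compound at 2.5 µM for 72 hr at 37°C under low oxygen, then stained with MitoTracker Red CMXRos and saponin for one to two hours. Red particles of 20–70 µm2 in one field per well were counted, and the viability index is that count scaled to the plate mean of solvent-only wells.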
On to `CC(C)NC(=O)NCC[C@@H]1CC[C@@H](NS(=O)(=O)c2ccc(Oc3ccccc3)cc2)[C@H](CO)O1`, for which the viability index turned out to be 1.071 ± 0.0073.

Consider `N#C[C@@H]1[C@H](c2ccccc2C2=CCCCC2)[C@@H](CO)N1S(=O)(=O)c1ccccc1`, for which the viability index amounted to 1.16 ± 0.063.

For `N#C[C@H]1[C@H](c2ccc(C#Cc3ccc(F)cc3)cc2)[C@H](CO)N1C(=O)Cc1ccncc1`, the viability index came out at 1.02 ± 0.03.

`CCCNC(=O)N1C[C@H](O)COC[C@@H]2O[C@@H](CC(=O)OC)CC[C@H]21` came in with a viability index of 1.05 ± 0.024.

Consider `COCC(=O)N1[C@@H](CO)[C@@H](c2ccc(-c3ccccc3OC)cc2)C12CN(C(C)=O)C2`, for which the viability index worked out at 1.09 ± 0.092.

As to `CCS(=O)(=O)Nc1ccc2c(c1)C(=O)N(C)[C@@H]1CC[C@@H](CC(=O)NCc3ccccc3F)O[C@H]1CO2`, the viability index is 1.13 ± 0.043.

For the molecule `N#C[C@H]1[C@@H](c2ccc(C3=CCCCC3)cc2)[C@H](CO)N1C(=O)CN1CCOCC1`, the viability index came to 1.11 ± 0.052.

Molecule `COc1ccc2c3c([C@H](CO)N(C[C@]33CN(C3)S(=O)(=O)c3cn(C)cn3)C(=O)Nc3ccc(F)cc3)n(C)c2c1` registered a viability index of 1.114 ± 0.0043.

Consider `O=C(Cc1cccnc1)N1CC(=O)N2[C@H](CO)[C@@H](c3ccc(/C=C/c4ccccc4)cc3)[C@@H]2C1`, for which the viability index came to 0.981 ± 0.018.

`N#C[C@H]1[C@@H](c2ccc(C3=CCCC3)cc2)[C@@H](CO)N1C(=O)c1ccccn1` displayed a viability index of 1.07 ± 0.067.

Molecule `C[C@@H]1CCCCO[C@@H](CN(C)C(=O)Nc2ccccc2)[C@@H](C)CN([C@H](C)CO)C(=O)c2cc(NC(=O)Nc3ccccc3)ccc2O1` returned a viability index of 1.13 ± 0.075.

As to `COc1ccc(CN2C[C@H](O)COC[C@@H]3O[C@H](CC(=O)N(C)C)CC[C@H]32)cc1`, the viability index worked out at 1.08 ± 0.1.

The molecule `O=C(C[C@@H]1CC[C@@H]2[C@H](COC[C@@H](O)CN2C(=O)c2ccc(F)cc2)O1)N1CCCCC1` displayed a viability index of 1.057 ± 0.0034.

Consider `CO[C@@H]1CC[C@H]2CCOc3ccc(C#N)cc3C(=O)N(C)C[C@H](c3ccccc3)CC(=O)N(C)C[C@H]1O2`, for which the viability index came out at 1.02 ± 0.04.

For the molecule `CCC(=O)Nc1ccc2c(c1)OC[C@@H](C)N(Cc1ccccc1)C[C@H](C)[C@H](OC)CN(C)C2=O`, the viability index worked out at 1.04 ± 0.032.

As to `O=C1CNC[C@H]2[C@@H](c3ccc(C4=CCCC4)cc3)[C@@H](CO)N12`, the viability index worked out at 1.061 ± 0.0039.

Molecule `CCCNC(=O)N1C[C@@H]2[C@H](c3ccccc31)[C@@H](CO)N2C(=O)Nc1ccccc1F` gave a viability index of 1.057 ± 0.0068.

`C[C@@H]1CN([C@@H](C)CO)C(=O)c2cc(NS(=O)(=O)c3cn(C)cn3)ccc2O[C@@H](C)CCCCO[C@@H]1CN(C)C(=O)Nc1ccc(C(F)(F)F)cc1` showed a viability index of 1.06 ± 0.083.

Molecule `CN1C(=O)c2cc(NC(=O)Cc3cccs3)ccc2OC[C@@H]2O[C@@H](CC(=O)NCC3CCCCC3)CC[C@H]21` showed a viability index of 1.14 ± 0.17.

On to `CCS(=O)(=O)Nc1ccc2c(c1)C(=O)N(C)C[C@H](OC)[C@@H](C)CN(C(=O)c1ccc3c(c1)OCO3)[C@@H](C)CO2`, for which the viability index was 1.11 ± 0.029.

`C[C@H](CO)N1C[C@H](C)[C@@H](CN(C)C(=O)Nc2ccccc2C(F)(F)F)OCc2ccccc2-c2c(n(C)c3ccccc23)C1=O` showed a viability index of 0.9944 ± 0.009.

`O=C(O)[C@H]1[C@H](CO)[C@H]2Cn3c(ccc(C4=CCCCC4)c3=O)[C@H]2N1Cc1ccc2c(c1)OCO2`: the viability index is 1.01 ± 0.026.

In the case of `C[C@@H]1CCCCO[C@H](CN(C)S(=O)(=O)c2cn(C)cn2)[C@@H](C)CN([C@@H](C)CO)C(=O)c2cc(N(C)C)ccc2O1`, the viability index was found to be 1.16 ± 0.023.

The molecule `CC(=O)N1CC2(C1)[C@@H](c1ccccc1)[C@@H](CO)N2C(=O)c1cnccn1` gave a viability index of 1.07 ± 0.036.

Consider `CCCNC(=O)N(C)C[C@H]1Oc2cc(C#C[C@H](C)O)ccc2S(=O)(=O)N([C@@H](C)CO)C[C@H]1C`, for which the viability index stood at 1.03 ± 0.034.

Regarding `O=C(Nc1cc(F)ccc1F)N1CCCCN2[C@H](CO)[C@H](c3ccc(C4=CCCCC4)cc3)[C@H]2C1`, the viability index was determined as 0.686 ± 0.018.

For `C[C@H]1CN([C@@H](C)CO)C(=O)c2cc(C#CC3(O)CCCC3)cnc2O[C@@H]1CN(C)S(=O)(=O)c1cccc(F)c1`, the viability index was determined as 1.04 ± 0.019.

Consider `COc1cccc(-c2ccc3c(c2)[C@H]2[C@H](CCN2S(=O)(=O)c2ccccc2F)[C@@H](CO)N3)c1`, for which the viability index was 0.932 ± 0.097.

The molecule `O=C(C1CCCCC1)N1CC(=O)N2[C@H](CO)[C@@H](c3ccc(-c4ccccc4F)cc3)[C@H]2C1` registered a viability index of 1.08 ± 0.025.

In turn, `CN(C[C@H]1N[C@@H](CO)[C@H]1c1ccc(-c2cccc(F)c2)cc1)C(=O)CC1CC1` displayed a viability index of 0.977 ± 0.086.

As for `COc1ccc2c3c([nH]c2c1)[C@@H](CO)N(C[C@]31CN(Cc2ccc(F)cc2)C1)C(=O)NC(C)C`, the viability index is 1.03 ± 0.034.

Molecule `COCC(=O)N1[C@H](CNC(=O)c2ccccn2)[C@@H](c2ccccc2)[C@@H]1CO` gave a viability index of 1.011 ± 0.0052.

`C[C@H](CO)N1C[C@H](C)[C@@H](CN(C)S(C)(=O)=O)Oc2ccc(NC(=O)NC3CCCCC3)cc2C1=O` displayed a viability index of 1.03 ± 0.028.

For `Cc1ccccc1-c1ccc([C@H]2[C@H]3CNC[C@@H]2N3C(=O)Nc2ccc(F)cc2)cc1`, the viability index turned out to be 1.02 ± 0.027.

On to `O=C(O)C[C@H]1C[C@H]2c3cc(NC(=O)Nc4ccc(C(F)(F)F)cc4)ccc3O[C@H]2[C@@H](CO)O1`, for which the viability index was 1.06 ± 0.041.

`O=C(C[C@@H]1C[C@H]2c3cc(NC(=O)Nc4ccccc4)ccc3O[C@H]2[C@H](CO)O1)NCc1ccccc1` registered a viability index of 1.058 ± 0.0017.

`O=C(C1CCOCC1)N1CC(=O)N2[C@H](CO)[C@H](c3ccc(-c4cccnc4)cc3)[C@H]2C1`: the viability index amounted to 0.987 ± 0.09.

With `O=C(c1cnccn1)N1CC(=O)N2[C@H](CO)[C@@H](c3ccc(C#CC4CC4)cc3)[C@@H]2C1`, the viability index worked out at 1.002 ± 0.0097.

For `CO[C@H]1CN(C)C(=O)c2cc(NC(=O)C3CC3)ccc2OC[C@H](C)N(Cc2cc(F)ccc2F)C[C@H]1C`, the viability index is 0.871 ± 0.12.

For the molecule `C[C@H]1CN([C@@H](C)CO)C(=O)CCCn2nncc2CO[C@H]1CN(C)S(=O)(=O)c1ccc(Oc2ccccc2)nc1`, the viability index is 1.08 ± 0.033.

For the molecule `N#Cc1ccc(-c2ccc([C@@H]3[C@@H]4CN(C(=O)Nc5ccc6c(c5)OCO6)C[C@H]3N4)cc2)cc1`, the viability index stood at 0.56 ± 0.15.

Regarding `O=C(Nc1ccccc1)N1C[C@@H]2N[C@H](C1)[C@H]2c1ccc(-c2ccccc2F)cc1`, the viability index is 1.1 ± 0.05.

`COc1cccc(NC(=O)Nc2ccc3c(c2)C(=O)N(C)C[C@H](OC)[C@@H](C)CN[C@@H](C)CO3)c1` returned a viability index of 1.021 ± 0.0027.

`O=C(C1CCOCC1)N1[C@@H](CO)[C@@H](c2ccccc2)C12CN(Cc1cccc(Cl)c1)C2` showed a viability index of 1.103 ± 0.0018.

Take `O=C(C[C@@H]1C=C[C@H](NC(=O)C2CCC2)[C@H](CO)O1)NC1CCCCC1`: the viability index turned out to be 0.999 ± 0.027.

The molecule `CO[C@H]1CN(C)C(=O)c2ccc(NC(=O)Nc3cc(F)ccc3F)cc2OC[C@@H](C)N(C(=O)c2ccccn2)C[C@@H]1C` had a viability index of 1.0784 ± 0.00021.

For `CC(C)NC(=O)N1[C@@H](CO)[C@@H](c2ccccc2)C12CN(Cc1cc(F)cc(F)c1)C2`, the viability index was 1.11 ± 0.063.

Take `COCC(=O)N1CC(=O)N2[C@H](C1)[C@@H](c1ccc(-c3ccccc3F)cc1)[C@@H]2CO`: the viability index worked out at 1.008 ± 0.0011.

In the case of `CCCNC(=O)N1CC(=O)N2[C@H](C1)[C@H](c1ccc(-c3ccc(F)cc3)cc1)[C@@H]2CO`, the viability index was found to be 1.06 ± 0.09.

`Cc1ccccc1-c1ccc([C@H]2[C@@H]3CN(Cc4cocn4)C[C@H]2N3)cc1` gave a viability index of 0.918 ± 0.0095.

In turn, `O=C(C[C@@H]1CC[C@@H](NC(=O)c2ccc3c(c2)OCO3)[C@H](CO)O1)NCc1ccc(Oc2ccccc2)cc1` displayed a viability index of 1.11 ± 0.16.

Regarding `COc1ccc2c3c([nH]c2c1)[C@H](CO)N(Cc1cc(F)ccc1F)C[C@]31CN(C1)C(=O)C1CCC1`, the viability index turned out to be 0.9961 ± 0.0055.

In the case of `COC(=O)C[C@H]1CC[C@H]2[C@@H](COC[C@H](O)CN2S(=O)(=O)c2ccccc2OC)O1`, the viability index is 1.01 ± 0.052.

For the molecule `CCC(=O)N1Cc2cc(C(=O)NCCOC)nc(-c3cccc(-c4ccc(C#N)cc4)c3)c2[C@@H]1CCO`, the viability index amounted to 1.06 ± 0.028.

For the molecule `C[C@@H]1CN([C@@H](C)CO)C(=O)c2ccccc2-c2ccccc2CO[C@H]1CN(C)S(=O)(=O)c1ccc([N+](=O)[O-])cc1`, the viability index came to 1.011 ± 0.003.

`CS(=O)(=O)N1CC2(C1)[C@@H](c1ccccc1)[C@@H](CO)N2Cc1ccccc1` registered a viability index of 1.09 ± 0.012.

The molecule `CN(C)C(=O)C[C@@H]1C=C[C@@H](NC(=O)c2ccc(F)cc2)[C@H](CO)O1` showed a viability index of 1.05 ± 0.075.

`CN1C(=O)c2cc(NC(=O)c3ccc(C(F)(F)F)cc3)ccc2OC[C@H]2O[C@H](CC(=O)NCc3ccc4c(c3)OCO4)CC[C@H]21` showed a viability index of 1.09 ± 0.0048.

In turn, `C(=C\c1ccc([C@H]2[C@H]3CNC[C@@H]2N3Cc2cncnc2)cc1)/c1ccccc1` registered a viability index of 1.09 ± 0.073.

Turning to `C[C@@H]1CN([C@H](C)CO)C(=O)CCCn2cc(nn2)CO[C@H]1CN(C)S(=O)(=O)c1ccc(-n2cccn2)cc1`, the viability index stood at 1.1 ± 0.049.

Regarding `COC(=O)C[C@@H]1C[C@@H]2c3cc(N)ccc3O[C@@H]2[C@H](CO)O1`, the viability index came to 1.07 ± 0.074.

`O=C(C[C@@H]1C[C@@H]2c3cc(NS(=O)(=O)c4ccccc4)ccc3O[C@@H]2[C@H](CO)O1)NCC(F)(F)F`: the viability index was found to be 1.067 ± 0.0094.

In turn, `COCC#Cc1ccc([C@H]2[C@@H](CO)N3CCCCN(C(=O)NC4CCCC4)C[C@@H]23)cc1` yielded a viability index of 1.049 ± 0.0079.

For `CO[C@H]1CN(C)C(=O)c2ccc(NC(=O)c3ccccc3F)cc2OC[C@@H](C)N(C)C[C@H]1C`, the viability index amounted to 1.04 ± 0.077.

For `O=C(C[C@@H]1C=C[C@@H](NC(=O)Cc2cccnc2)[C@@H](CO)O1)NCc1ccc2c(c1)OCO2`, the viability index is 1.1 ± 0.041.

`O=C(C[C@H]1C[C@@H]2c3cc(NS(=O)(=O)c4ccc(F)cc4)ccc3O[C@@H]2[C@@H](CO)O1)NCc1cccnc1`: the viability index is 1.11 ± 0.017.

With `COCCN(C[C@H]1[C@H](c2ccccc2)[C@@H](CO)N1C(C)=O)C(=O)c1cccnc1`, the viability index was found to be 0.961 ± 0.057.

On to `COCCNC(=O)[C@H]1[C@H](CO)[C@H]2Cn3c(ccc(C4=CCCCC4)c3=O)[C@@H]1N2Cc1cocn1`, for which the viability index was determined as 1.06 ± 0.018.

The molecule `Cc1noc(C)c1S(=O)(=O)Nc1ccc2c(c1)C(=O)N([C@H](C)CO)C[C@H](C)[C@H](CN(C)C(=O)Nc1cccc3ccccc13)OCCCC[C@@H](C)O2` gave a viability index of 1.04 ± 0.084.

`C[C@@H]1CN([C@H](C)CO)C(=O)c2ccccc2-c2ccccc2CO[C@H]1CN(C)C(=O)Nc1ccc(-c2ccccc2)cc1` yielded a viability index of 0.923 ± 0.048.

`O=C1CCCn2cc(nn2)COC[C@@H](c2ccccc2)N1` gave a viability index of 1.04 ± 0.053.
